Laboratory results from PubChem BioAssay AID2676 (National Center for Advancing Translational Sciences (NCATS), 2010).
Several values for one entry are separate records, joined by “and”; a condition that tells them apart may be missing. Equal entries are not always repeated. The campaign covered roughly 370,000 compounds. About 1,100 (0.3%) were called active. The inconclusive results got no clear call from the source; some entries with a clear call stand among them for comparison. Calls come from the whole dose curve; as a rule, active = well fitted activation curve with a large enough effect; inconclusive = small, poorly fitted or top-dose-only effect; inactive = flat fitted curve, though single readings scatter. Potencies of inconclusive entries are doubtful fits and often do not repeat.

Molecular target: Relaxin receptor 1 (Homo sapiens) (UniProt Q9HBX9)
Assay: qHTS Assay for Agonists of the Relaxin Receptor RXFP1; note: nearly all actives have a fitted effect of over 60% in size
Details: HEK293T-RXFP1 cAMP TR-FRET, 30 min; series mostly up to 57.5 µM; activation: at the top concentration
Procedure, shortened: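 Agonist response is measured as cAMP accumulation in an RXFP1-transfected HEK293T line under PDE4 inhibition. Values are scaled between buffer-only and 29 nM porcine relaxin, and EC50s come from standard Hill equation fits.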
% is set by controls: 0 for no effect and ±100 for the full control effect; potency is the fitted concentration of half-maximal effect; tags give direction and shape of the fitted curve.

UniProt Q9HBX9, sequence (Q9HBX9 whole entry, looked up): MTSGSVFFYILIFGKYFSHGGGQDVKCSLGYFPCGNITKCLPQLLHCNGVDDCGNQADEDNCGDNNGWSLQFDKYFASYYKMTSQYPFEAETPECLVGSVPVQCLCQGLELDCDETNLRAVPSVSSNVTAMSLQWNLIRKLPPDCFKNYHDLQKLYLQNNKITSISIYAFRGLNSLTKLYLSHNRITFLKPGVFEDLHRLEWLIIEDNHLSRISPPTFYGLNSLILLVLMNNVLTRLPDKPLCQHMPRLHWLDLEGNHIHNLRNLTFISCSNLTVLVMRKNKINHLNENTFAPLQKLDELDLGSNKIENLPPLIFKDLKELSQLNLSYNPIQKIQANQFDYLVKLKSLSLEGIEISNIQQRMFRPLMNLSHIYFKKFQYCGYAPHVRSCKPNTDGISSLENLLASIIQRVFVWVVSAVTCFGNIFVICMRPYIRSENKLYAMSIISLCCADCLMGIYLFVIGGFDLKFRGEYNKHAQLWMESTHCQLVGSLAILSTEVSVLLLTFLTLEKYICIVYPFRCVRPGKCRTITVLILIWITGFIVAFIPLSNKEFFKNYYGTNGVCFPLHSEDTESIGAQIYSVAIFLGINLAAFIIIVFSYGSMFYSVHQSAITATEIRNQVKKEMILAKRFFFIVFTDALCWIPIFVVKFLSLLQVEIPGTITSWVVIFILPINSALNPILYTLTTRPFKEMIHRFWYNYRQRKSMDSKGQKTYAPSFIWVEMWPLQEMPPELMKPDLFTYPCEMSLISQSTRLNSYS

Compound	Potency	activation
COc1c(C)cccc1C(=O)Nc1ccc(-c2nc3ccccc3s2)c(Cl)c1	inconclusive: 35.5 µM [activator, single point]	–
O=C(NC1CC1)C1CCN(c2ccc(S(=O)(=O)N3CCOCC3)cc2)CC1	–	inactive: 1.95%
COCCNC(=O)/C(C#N)=C/c1c(N2CCN(C)CC2)nc2ccccn2c1=O	inconclusive: 22.4 µM [activator, single point]	–
O=C(C1=C(O)C(=O)N(CCCn2ccnc2)C1c1ccc(F)cc1)c1ccco1 (configuration not stated)	inconclusive: 25.1 µM [activator, partial curve]	–
Cc1cc(C)c(NC(=O)CSc2nc3ncc(Br)cc3[nH]2)c(C)c1	inconclusive: 39.8 µM [activator, single point]	–
CCOc1ccc(S(=O)(=O)c2cc3cccc(OCC)c3oc2=O)cc1	inconclusive: 39.8 µM [activator, single point]	–
Cc1ccc(-c2nnc3c4ccccc4c(-c4ccccc4)nn23)cc1	inconclusive: 35.5 µM [activator, single point]	–
COc1cc(OC)cc(-n2c(=O)c3ccccc3n(Cc3ccccc3C#N)c2=O)c1	inconclusive: 31.6 µM [activator, single point]	–
CCSc1nnc(NC(=O)c2ccccc2)s1	–	inactive: 1.76%
Cc1noc(NS(=O)(=O)c2ccc(NC(=O)c3nn(-c4ccc(F)cc4)ccc3=O)cc2)c1C	inconclusive: 22.4 µM [activator, partial curve]	–
Cc1nc2ccccc2c(=O)n1NC(=O)Cc1ccc([N+](=O)[O-])cc1	inconclusive: 17.8 µM [activator, partial curve]	–
O=C(CSc1nncn2c1cc1occc12)Nc1ccc(F)c(Cl)c1	inconclusive: 20 µM [activator, partial curve]	–
CCOc1ncccc1C(=O)Nc1cc(C(F)(F)F)ccc1N1CCOCC1	–	inactive: 0.368%
Cc1cccc(NC(=O)CSc2ccc3nnc(-c4cccnc4)n3n2)c1	inconclusive: 15.8 µM [activator, partial curve]	–
Cc1ccc(S(=O)(=O)N(Cc2cc3ccc(C)cc3[nH]c2=O)c2ccccc2)cc1	inconclusive: 39.8 µM [activator, single point]	–
CCN(C(=O)Cn1cnc2onc(-c3ccc(F)cc3)c2c1=O)c1ccc(OC)cc1	–	inactive: 0.122%
CCC(CC)c1nnc(NC(=O)COc2ccc3c(c2)OCO3)s1	–	inactive: -4.84%
CCOc1cc(C=O)ccc1OCc1cc(=O)n2cc(C)ccc2n1	inconclusive: 14.1 µM [activator, partial curve]	–
Cc1cc2cc3c(cc2nc1SCC(=O)O)CCC3	inconclusive: 35.5 µM [activator, single point]	–
C=CCNc1ncnc2c1ncn2C1OC(CO)C(O)C1O (configuration not stated)	active: 25.1 µM	–
COC(=O)c1ccc(NC(=O)N2CCN(Cc3cc(=O)n4nc(-c5ccc(C)cc5)sc4n3)CC2)cc1	inconclusive: 31.6 µM [activator, single point]	–
N#CCc1nn2c(-c3ccccc3)ccnc2c1C#N	–	inactive: 22.8%
Cc1cccn2c(=O)c3cc(C(=O)NCc4cccnc4)c(=N)n(CCCO)c3nc12	inconclusive: 28.2 µM [activator, partial curve]	–

Compound	Potency	activation
COc1ccc2c(C)cc(=S)[nH]c2c1	active: 20 µM	–
CNC(=O)C(Sc1nc(C)nc2c1oc1ccccc12)C(C)=O (configuration not stated)	inconclusive: 35.5 µM [activator, single point]	–
CCC(=O)Nc1ccc2nc(SCCOc3ccc(C)cc3)sc2c1	inconclusive: 39.8 µM [activator, single point]	–
COc1cccc(-c2ccc3c(N)c(C(=O)Nc4cc(F)ccc4F)sc3n2)c1	inconclusive: 17.8 µM [activator, partial curve]	–
CCOC(=O)C1CCCN(C(=O)c2ccc(-n3ccc4ccccc43)s2)C1 (configuration not stated)	inconclusive: 28.2 µM [activator, partial curve]	–
O=C(NCc1ccccc1)C(=O)Nc1ccc2nc3n(c(=O)c2c1)CCCCC3	inconclusive: 39.8 µM [activator, single point]	–
COc1ccc2cc(C(=O)C3CCCN(C(=O)c4cnn(C(C)C)c4)C3)ccc2c1 (configuration not stated)	inconclusive: 28.2 µM [activator, partial curve]	–
COC(=O)c1ccc2c(=O)n(Cc3ccc4c(c3)OCO4)c(=S)[nH]c2c1	inconclusive: 35.5 µM [activator, single point]	–
C[C@H](Cc1ccccc1)Nc1ncnc2c1ncn2[C@@H]1O[C@H](CO)[C@@H](O)[C@H]1O	active: 11.2 µM	–
CCCOc1cccc(C2c3c(oc4ccccc4c3=O)C(=O)N2c2nncs2)c1 (configuration not stated)	–	inactive: 2.6%
COc1cccc(C(=O)c2cn(CC(=O)NCc3ccccc3Cl)c3nc(C)ccc3c2=O)c1	inconclusive: 31.6 µM [activator, single point]	–
Cc1nc(SCC(=O)Nc2ccccc2)c2oc3ccccc3c2n1	inconclusive: 35.5 µM [activator, single point]	–
O=C(CSc1nnc2ccc(-c3ccc(F)cc3)nn12)NCC1CCCO1 (configuration not stated)	inconclusive: 28.2 µM [activator, partial curve]	–
Cc1ccc(CNC(=O)CSc2nc3ccsc3c(=O)n2-c2ccc(Br)cc2)cc1	inconclusive: 39.8 µM [activator, single point]	–
COc1ccc(C=O)cc1Cn1c(=O)n(CCC(=O)NCc2ccco2)c(=O)c2sccc21	inconclusive: 35.5 µM [activator, single point]	–
O=C(N/N=C1\CCc2ccccc21)c1ccc(O)cc1	–	inactive: -0.303%
CCOc1ccc(NC(=O)CNC(=O)c2nn(-c3ccc(OC)c(OC)c3)c(=O)c3ccccc23)cc1	inconclusive: 39.8 µM [activator, single point]	–
COc1ccc(C(=O)Nc2nnc(S(=O)(=O)N(C)c3ccc(C)cc3)s2)cc1	–	inactive: 0.185%
Cc1[nH]c2ccccc2c1CCN(Cc1cccnc1)C(=S)Nc1cccc(F)c1	–	inactive: 0.321%
CC(C)c1ccc(NC(=O)c2cnc3sc(N4CCCC4)nn3c2=O)cc1	inconclusive: 39.8 µM [activator, single point]	–
Cn1c(=O)c2sccc2n2c(CCCC(=O)NCc3cccnc3)nnc12	active: 12.6 µM	–
CCOCCCNC(=O)c1ccc(Cn2c(=O)c3cccn3c3cccnc32)cc1	inconclusive: 39.8 µM [activator, single point]	–
COc1ccc(NC(=S)NC(C)C(c2ccccc2)N2CCOCC2)cc1 (configuration not stated)	–	inactive: -0.0266%

Compound	Potency	activation
N#Cc1cc2c(nc1SCC(=O)Nc1nccs1)CCCCC2	inconclusive: 35.5 µM [activator, single point]	–
NS(=O)(=O)c1ccc(N/N=C/c2ccc(O)c(O)c2O)c([N+](=O)[O-])c1	–	inactive: -2.28%
O=C(NC(=S)Nc1ccccc1C(=O)O)c1ccc(-c2ccc(Br)cc2)o1	inconclusive: 14.1 µM [activator, partial curve]	–
COc1ccc(S(=O)(=O)N2CCOCC2)cc1NC(=O)CSc1cccc[n+]1[O-]	inconclusive: 25.1 µM [activator, partial curve]	–
COc1cccc(C2C(C(=O)c3cccs3)=C(O)C(=O)N2c2cc(C)on2)c1 (configuration not stated)	inconclusive: 25.1 µM [activator, partial curve]	–
CCOC(=O)CC(NC(=O)CCc1c(C)nc2nc(C)nn2c1C)c1ccc(OC(C)C)cc1 (configuration not stated)	active: 17.8 µM	–
COc1ccc2c3c(c(=O)oc2c1)C1O[C@](CCCCN2C(=O)c4ccccc4C2=O)(Cc2cc(OC)c(OC)cc21)O3	–	inactive: 2.87% [at 11.5 µM, percent of porcine relaxin response, buffer zero]
COCCCN1C(=O)C(O)=C(C(=O)c2ccco2)C1c1ccccc1 (configuration not stated)	inconclusive: 15.8 µM [activator, partial curve]	–
Cc1cc(Br)cc2c(C(=O)OCC(=O)c3ccccc3)cc(-c3ccccc3)nc12	inconclusive: 3.55 µM [activator, single point]	–
CCc1ccc(NC(=O)Cn2c(=O)n(-c3ccccc3)c(=O)c3ccc(C(=O)NCc4ccc5c(c4)OCO5)cc32)cc1	inconclusive: 39.8 µM [activator, single point]	–
O=C(CSc1ncnc2c1oc1ccccc12)c1cccs1	active: 22.4 µM	–
Cc1ccc(-n2nc3c(N4CCC(C(=O)NCCc5ccccc5C)CC4)nnc(C)c3c2C)cc1	inconclusive: 35.5 µM [activator, single point] and inconclusive: 39.8 µM [activator, single point]	–
CC(C)OC(=O)CSc1nc(N)c(C#N)c(-c2ccco2)c1C#N	inconclusive: 35.5 µM [activator, single point]	–
Cc1cc(SCC(=O)N/N=C/c2ccc(O)cc2O)nc2ccccc12	–	inactive: -0.154%
NC1=CC(=O)c2cccc3cccc1c23	inconclusive: 28.2 µM [activator, partial curve]	–
COc1ccc(Cl)cc1NC(=O)CCN1C(=O)c2ccccc2Sc2ncccc21	–	inactive: 2.88%
COc1ccccc1N1CCN(C(=O)c2sc3nc(C)nc(N4CCN(c5ccccn5)CC4)c3c2C)CC1	–	inactive: 7.25%
Cc1ccc(S(=O)(=O)c2ccccc2)cc1S(=O)(=O)N1CCOCC1	–	inactive: 1.42%
CCOC(=O)N=Nc1c2ccccc2c2nc3no[nH]c3nc12	–	inactive: 0.466%
Cc1cc(C)c(Cn2c3ccccc3c3cnn(CC(=O)NCCN4CCOCC4)c(=O)c32)c(C)c1	–	inactive: -0.0586%
Cc1cc(NC(=O)CSc2ncnc3c2cnn3-c2ccccc2)no1	–	inactive: 14.5%
